In PMC4336329 (PLoS ONE, 2015):
The campaign covered roughly 310,000 compounds. About 2,200 (0.71%) showed an effect of 50% or more. Effects have a minus sign here. The list shows a part of the results.

Target: human ether-à-go-go-related gene (hERG) potassium channel (human, UniProt Q12809)
Assay: primary screen, population patch clamp on CHO cells stably expressing hERG

human ether-à-go-go-related gene (hERG) potassium channel, sequence (Q12809 whole entry, looked up): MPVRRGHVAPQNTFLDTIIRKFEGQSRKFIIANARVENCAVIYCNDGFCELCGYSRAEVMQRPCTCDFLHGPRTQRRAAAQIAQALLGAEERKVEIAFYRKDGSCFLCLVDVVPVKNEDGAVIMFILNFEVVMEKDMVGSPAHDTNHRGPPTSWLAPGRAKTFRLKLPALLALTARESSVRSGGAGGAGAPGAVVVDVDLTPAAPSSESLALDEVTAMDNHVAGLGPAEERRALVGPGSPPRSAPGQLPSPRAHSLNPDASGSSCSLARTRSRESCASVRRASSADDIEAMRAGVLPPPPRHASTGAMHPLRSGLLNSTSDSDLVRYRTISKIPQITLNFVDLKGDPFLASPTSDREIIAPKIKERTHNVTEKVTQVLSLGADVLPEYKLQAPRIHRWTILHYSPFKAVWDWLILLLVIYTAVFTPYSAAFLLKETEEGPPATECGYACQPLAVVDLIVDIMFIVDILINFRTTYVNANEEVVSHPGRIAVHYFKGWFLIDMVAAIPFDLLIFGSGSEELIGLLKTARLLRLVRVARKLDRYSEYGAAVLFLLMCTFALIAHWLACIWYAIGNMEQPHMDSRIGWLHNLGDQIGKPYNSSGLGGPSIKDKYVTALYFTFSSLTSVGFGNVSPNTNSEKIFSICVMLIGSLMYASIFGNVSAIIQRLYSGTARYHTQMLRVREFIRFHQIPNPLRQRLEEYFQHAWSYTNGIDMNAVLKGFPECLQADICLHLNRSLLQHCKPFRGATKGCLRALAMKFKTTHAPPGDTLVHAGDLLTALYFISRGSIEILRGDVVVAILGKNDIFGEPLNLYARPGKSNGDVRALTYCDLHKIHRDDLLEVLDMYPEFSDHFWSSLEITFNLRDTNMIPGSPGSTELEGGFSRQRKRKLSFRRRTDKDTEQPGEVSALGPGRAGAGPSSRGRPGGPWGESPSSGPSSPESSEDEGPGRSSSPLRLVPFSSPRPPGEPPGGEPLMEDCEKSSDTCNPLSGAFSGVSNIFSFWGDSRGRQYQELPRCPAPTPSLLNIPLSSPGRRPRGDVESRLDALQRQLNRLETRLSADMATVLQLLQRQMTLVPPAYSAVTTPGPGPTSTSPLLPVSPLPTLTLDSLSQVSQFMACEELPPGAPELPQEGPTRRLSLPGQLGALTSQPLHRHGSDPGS

| SMILES | hERG current change (%, negative = inhibition) at 1uM |
| --- | --- |
| COc1ccc(-c2cn(CCC(=O)NCc3ccc(C)cc3)c(CCN)n2)cc1 | 9.66% |
| CC1CCN(C(=O)C2CCN(C(=O)c3cc4sccc4n3Cc3ccc(F)cc3)CC2)CC1 | 1.95% |
| Cc1cc(NC(=O)CSc2nnc3ccc(-c4ccc(F)cc4)nn23)no1 | 20.1% |
| CCCS(=O)(=O)N1CCCC(C(=O)N2CCN(c3ccccc3)CC2)C1 (stereo not drawn) | 0.664% |
| CC1CN(C(=O)CCNC(=O)c2ccc(Br)cc2)CC(C)O1 (stereo not drawn) | 5.99% |
| O=[N+]([O-])c1ccc2nc(-c3ccccc3)n(OCc3ccc(Cl)cc3)c2c1 | 6% |
| CC1(c2ccccc2)NC(=O)N(NC(=O)CSc2n[nH]c(N)n2)C1=O (stereo not drawn) | 17.5% |
| CCCNC(=S)NC1CCCC1 | -2.81% |
| O=C(NCc1ccccc1)C(c1ccc(F)cc1)N(C(=O)c1csnn1)c1ccccc1 (stereo not drawn) | 12.6% |
| CCc1cccc(C)c1NC(=S)N(CCOC)C(C)c1ccco1 (stereo not drawn) | 1.59% |
| CCCCN(Cc1ccco1)S(=O)(=O)c1csc(C(N)=O)c1 | 8.2% |
| COc1ccc(C(CC(=O)O)NC(C)=O)cc1OC (stereo not drawn) | 14.2% |
| COc1cc(/C=C2/S/C(=N/S(=O)(=O)Cc3ccccc3)NC2=O)c([N+](=O)[O-])cc1OC | 10.2% |
| O=C(NC1CCS(=O)(=O)C1)/C(=C\c1ccccc1)NC(=O)c1ccccc1 (stereo not drawn) | -1.24% |
| COc1ccc(CC(=O)Nc2ccc(S(=O)(=O)N(C)C3CCN(C)CC3)cc2)cc1 | 8.16% |
| Clc1cc2c(nn1)Nc1ccccc1S2 | 2.75% |
| COc1ccc(Nc2nc3cc(C)ccc3cc2C#N)c(OC)c1 | 5.11% |
| CC1=CC(C)(C)N(C(=O)CN2C(=O)c3ccccc3C2=O)c2ccc(C)cc21 | 2.65% |
| Nc1nc2n(n1)C(c1ccco1)CC(c1ccc(Cl)c(Cl)c1)N2 (stereo not drawn) | -2.99% |
| COC(=O)c1ccc2c(=O)n(Cc3ccc(C(=O)NCCCN4CCOCC4)cc3)c(=S)[nH]c2c1 | 14.5% |
| Cc1cccc(OCC(=O)N2CCN(Cc3ccc([N+](=O)[O-])cc3)CC2)c1.O=C(O)C(=O)O | -60.5% |
| Cn1cccc1C(=O)NC(=O)COC(=O)c1cc([N+](=O)[O-])ccc1Cl | 2.77% |

| SMILES | hERG current change (%, negative = inhibition) at 1uM |
| --- | --- |
| CCOCCCNc1nc(C)nc2c1nnn2Cc1c(F)cccc1Cl | 7.54% |
| COc1ccc(C(=O)Nc2ccccc2-c2nnn(CC(=O)Nc3ccc4c(c3)OCCO4)n2)cc1 | 0.96% |
| COc1ccc(/C=C/C(=O)Nc2c(C)nn(C)c2C)cc1COc1ccc(Br)cc1 | 14.9% |
| COc1ccc(C(CNC(=O)c2ccc(-c3nc4ccccc4s3)o2)N2CCCC2)cc1 (stereo not drawn) | 5.84% |
| COc1ccc(C(NCC(=O)Nc2c(C)cccc2C)c2ccccc2)cc1.O=C(O)C(=O)O (stereo not drawn) | 9.2% |
| Cc1noc(C)c1COc1ccc(C(=O)OCC(=O)Nc2ccc(C(=O)N(C)C)cc2)cc1 | 15.9% |
| O=C(NCc1ccccc1)C1CCCN(S(=O)(=O)c2cccc3nsnc23)C1 (stereo not drawn) | 8.4% |
| O=C(CSc1ncccc1-c1nc2ccccc2[nH]1)N1CCN(c2ccccc2F)CC1 | -2.69% |
| COc1ccccc1N(CC(O)Cn1nc(C)cc1C)S(=O)(=O)c1ccccc1 (stereo not drawn) | 12.2% |
| COc1cc(CNC(=O)c2ccc3c(c2)S(=O)(=O)c2ccccc2C3=O)cc(OC)c1 | 7.13% |
| O=C(Nc1ccccc1Cl)N1CCN(C/C=C/c2ccccc2)CC1 | 2.56% |
| Cc1ccc(/C=C(\NC(=O)c2ccccc2)C(=O)NC2CCN(Cc3ccccc3)CC2)o1 | -33.6% |
| CC(=O)c1cccc(NC(=S)NCCc2ccc(Cl)cc2)c1 | 6.05% |
| Cn1cc(S(=O)(=O)NCc2ccc3c(c2)OCO3)c(C(F)(F)F)n1 | -1.4% |
| CN1CCC(=O)N(CCSc2ccccc2)CC1 | 0.897% |
| CC(C)Oc1ccc(CNS(=O)(=O)c2csc(C(N)=O)c2)cc1 | 1.93% |
| CC1CCN(S(=O)(=O)c2ccc3c(c2)N(CC(=O)NCCCOC(C)C)C(=O)CO3)CC1 | 20.9% |
| O=C(C=C1SCCS1)/C=C/c1ccco1 | 3.43% |
| CCOc1ccc(/C=N/NC(=O)CC(=O)NCc2ccccc2)cc1 | 9.96% |
| O=C(CCc1ccccc1)NNC(=O)Cc1ccc(Cl)cc1 | 14.8% |
| O=C(COC(=O)c1c(F)cccc1F)c1ccc[nH]1 | 12.7% |
| Cc1ccc(S(=O)(=O)N2CCCCC2)cc1C(=O)N(C)CC(=O)Nc1ccc(Cl)c(C(F)(F)F)c1 | 5.92% |

| SMILES | hERG current change (%, negative = inhibition) at 1uM |
| --- | --- |
| CC(CN1CCOCC1)OC(=O)COc1ccc(F)cc1 (stereo not drawn) | 8.05% |
| Cc1ccc[n+](C(C)C(=O)c2ccc(-c3ccccc3)cc2)c1.[Br-] (stereo not drawn) | 2.13% |
| CC1CCC(NC(=O)COC(=O)c2ccco2)CC1 (stereo not drawn) | 9.77% |
| COc1ccccc1-c1nnc(SCC(=O)Nc2nc(-c3ccccc3)cs2)n1C | -15.5% |
| O=C(O)c1cnn(-c2nc(-c3cccc(F)c3)cs2)c1C(F)(F)F | 12.3% |
| CC(=O)Nc1ccc(NC(=O)CSc2nnc3ccc(-c4ccccn4)nn23)cc1 | 9.29% |
| COc1ccc(CCn2c(=S)[nH]c3cc(C(=O)NCc4ccco4)ccc3c2=O)cc1OC | 3.65% |
| Cc1sc2nc(C(C)C)nc(SCC(=O)N3CCOCC3)c2c1C | 10.4% |
| O=C(COC(=O)c1ccc2c(c1)OCO2)NC1CCS(=O)(=O)C1 (stereo not drawn) | 5.95% |
| CC(=O)Nc1ccccc1OCC(=O)NCCC1=CCCCC1 | 8.95% |
| COc1ccc(CN(C(=O)c2cccs2)C(C(=O)NC2CCCCC2)c2ccc3ncccc3c2)cc1 (stereo not drawn) | -6.69% |
| O=C(NNC1=NCCCCC1)Nc1ccc(Cl)cc1 | 11.5% |
| CCc1ccc(Nc2nc(N3CCOCC3)nc(N3CCOCC3)n2)cc1.Cl | 15.8% |
| CC1CCc2nc3ccc(S(=O)(=O)N4CCC(C(=O)NC(C)c5ccccc5)CC4)cc3c(C(=O)O)c2C1 (stereo not drawn) | 24.9% |
| CS(=O)(=O)N1CCN(C(=O)COc2ccc3ccccc3c2)CC1 | 14.4% |
| Cc1cc(NC(=O)COn2nnc3ccccc32)no1 | 8.4% |
| COc1ccc(CNC(=O)c2nc(S(=O)(=O)Cc3ccccc3)ncc2Cl)cc1 | 5.21% |
| Cc1nnc(NC(=O)c2csc3c2CCCC3)s1 | 9.19% |
| CCOc1ccccc1C1C(C#N)=C(N)Oc2cc(N)ccc21 (stereo not drawn) | 1.83% |
| O=C(NC(=S)N1CCN(C/C=C/c2ccccc2)CC1)c1ccc(Cl)nc1 | 5.61% |
| COc1cccc(/C=C/C(=O)OCC(=O)NCCC2=CCCCC2)c1 | -1.66% |
| Clc1ccc2nc(-c3ccc(Cl)nc3)[nH]c2c1 | 11.5% |

| SMILES | hERG current change (%, negative = inhibition) at 1uM |
| --- | --- |
| O=C(NCCc1c[nH]c2ccccc12)Nc1ccccc1 | 16.3% |
| CCOc1ccc(OCC)c(NC(=O)C2CCCN(S(=O)(=O)c3ccc(C)cc3)C2)c1 (stereo not drawn) | 15.9% |
| Cn1c(CN2CCOCC2)nnc1SCC(=O)Nc1cccc(C(F)(F)F)c1 | 8.57% |
| CCOC(=O)c1c(C)[nH]c(C)c1C(=O)COc1ncnc2ccccc12 | 17.7% |
| O=C(c1cc(-c2ccc(F)cc2)on1)N1CCCCCC1 | 10.9% |
| COc1cccc(/C=C(\C#N)c2nc3ccccc3[nH]2)c1OCC(=O)O | 17.3% |
| Cc1ccc(S(=O)(=O)c2nc(S(C)(=O)=O)sc2N2CCCC2)cc1 | 15.1% |
| Cc1cc(C(F)(F)F)c2c(N)c(C(=O)NC3CC3)sc2n1 | 16.5% |
| O=C(CN1CCN(Cc2ccc(F)cc2)C1=O)NC1CCCC1 | 8.01% |
| COc1ccccc1CCC(=O)OCC(=O)N1c2ccccc2NC(=O)C1(C)C | 18.1% |
| Cc1ccc2cc(CN(Cc3ccco3)C(=O)c3cccs3)c(=O)[nH]c2c1 | 0.254% |
| CCn1c(CNc2ccc(Cl)cc2)nnc1SCC(=O)OC1CCCCC1 | -5.69% |
| CC(C)CCNC(=O)CN(C)S(=O)(=O)c1cccc2nsnc12 | 10.7% |
| CCOc1ccc(-c2cccc(NS(=O)(=O)c3ccc([N+](=O)[O-])cc3)c2)nn1 | -1.87% |
| O=C(Nc1cccc(S(=O)(=O)N2CCOCC2)c1)c1cc2c(s1)CCC2 | 7.19% |
| Cc1ccnc(SC2CC(=O)N(c3ccc(Br)cc3)C2=O)n1 (stereo not drawn) | 13.5% |
| O=C(Cn1nc(-c2cccc([N+](=O)[O-])c2)c2ccccc2c1=O)NCC1CCCO1 (stereo not drawn) | 6.93% |
| NC(=O)CN1CCN(C(=O)NC2CCCCC2)CC1 | 4.67% |
| CCCCOCCCNC(=O)COc1ccccc1 | 17.2% |
| Cc1nc(SCC(=O)N2CCOCC2)c2ccsc2n1 | 5.82% |
| CC(C)CNC(=O)NC(=O)CSc1nc2ccccc2n1CC(C)C | 6.65% |
